# In article PMC4336329 (PLoS ONE, 2015):
# About 2,200 (0.71%) of roughly 310,000 compounds showed an effect of 50% or more. Effects have a minus sign here. The list shows a part of the results.
# Molecular target: human ether-à-go-go-related gene (hERG) potassium channel (human, UniProt Q12809)
# Assay: primary screen, population patch clamp on CHO cells stably expressing hERG
# Sequence of human ether-à-go-go-related gene (hERG) potassium channel (Q12809 whole entry, looked up): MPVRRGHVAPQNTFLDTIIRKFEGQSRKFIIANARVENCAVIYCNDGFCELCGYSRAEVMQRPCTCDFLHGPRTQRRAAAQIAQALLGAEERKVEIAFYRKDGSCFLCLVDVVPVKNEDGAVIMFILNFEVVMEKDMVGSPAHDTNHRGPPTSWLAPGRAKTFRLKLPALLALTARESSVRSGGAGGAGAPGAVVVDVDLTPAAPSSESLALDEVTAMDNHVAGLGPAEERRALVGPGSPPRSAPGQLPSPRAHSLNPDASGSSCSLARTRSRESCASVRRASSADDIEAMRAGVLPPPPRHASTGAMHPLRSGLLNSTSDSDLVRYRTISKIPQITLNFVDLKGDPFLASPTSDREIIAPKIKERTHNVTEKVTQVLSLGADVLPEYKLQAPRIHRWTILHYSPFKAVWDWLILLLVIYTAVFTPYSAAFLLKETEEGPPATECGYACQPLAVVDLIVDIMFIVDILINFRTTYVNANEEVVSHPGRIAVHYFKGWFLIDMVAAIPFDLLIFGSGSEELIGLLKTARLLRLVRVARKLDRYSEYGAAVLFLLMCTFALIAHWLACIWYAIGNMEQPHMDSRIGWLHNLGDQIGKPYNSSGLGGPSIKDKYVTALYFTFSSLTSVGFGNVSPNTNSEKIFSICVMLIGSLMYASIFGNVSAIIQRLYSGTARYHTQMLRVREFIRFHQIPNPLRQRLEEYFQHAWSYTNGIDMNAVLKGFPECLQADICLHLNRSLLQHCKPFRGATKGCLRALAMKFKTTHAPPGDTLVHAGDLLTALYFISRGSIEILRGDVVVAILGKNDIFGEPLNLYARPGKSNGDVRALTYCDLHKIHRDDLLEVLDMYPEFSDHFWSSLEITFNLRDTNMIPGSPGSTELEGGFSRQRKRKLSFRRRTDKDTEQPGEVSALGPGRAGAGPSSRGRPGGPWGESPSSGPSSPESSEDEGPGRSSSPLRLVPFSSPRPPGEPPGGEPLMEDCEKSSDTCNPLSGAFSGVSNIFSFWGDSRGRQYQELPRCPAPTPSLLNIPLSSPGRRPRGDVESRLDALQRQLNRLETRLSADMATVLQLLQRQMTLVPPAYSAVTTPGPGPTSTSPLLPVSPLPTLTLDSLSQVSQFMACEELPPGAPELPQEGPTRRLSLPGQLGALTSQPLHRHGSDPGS
row,Structure (SMILES),"hERG current change (%, negative = inhibition) at 1uM [%]"
1,CCC(=O)Nc1cccc(NC(=O)CSc2nnnn2C)c1,-34.5
2,C=CCOc1c(Cl)cc(CNc2ccc3[nH]c(=O)[nH]c3c2)cc1OC,11.3
3,CCOc1ccccc1N=C1NC(=O)CS1,4.5
4,O=C(Cc1ccc(-c2ccccc2)cc1)NCCN1CCOCC1,11.7
5,O=C(CSc1nnc(-c2ccncc2)o1)c1cccc([N+](=O)[O-])c1,7.71
6,CCCOc1ccc(-c2nnc(N)s2)cc1,13.5
7,CSc1c(C#N)c(N)c(C#N)c2c1COC(C)(C)C2,-1.89
8,Cc1ccc(OCCC(=O)OCC(=O)N2CCN(S(=O)(=O)c3ccc(C)cc3)CC2)cc1,-19.9
9,O=C(NCc1ccccc1)c1cc[n+](CC(=O)c2cccs2)cc1.[Br-],-1.16
10,Cc1ccc(S(=O)(=O)NCC(C)NS(=O)(=O)c2ccc(C)cc2)cc1 (stereo not shown),11
11,N/C(Cc1ccc([N+](=O)[O-])cc1)=N\OC(=O)c1ccccc1Br,-33.3
12,CC(C)Cc1nc2n[nH]c(N)c2c2c1COC(C)(C)C2,5.06
13,Cc1ccc(-n2c(-c3ccccc3)n[nH]c2=S)c(C)c1,17.4
14,Cc1ccc(NC(=O)c2ccc(OCc3c(C)noc3C)cc2)cc1,2.98
15,Cc1cc(C)n2c(SCC(=O)NC3CCCC(C)C3C)nnc2n1 (stereo not shown),12.4
16,CCCN1C(=O)/C(=C/c2nc3ccccc3c(=O)[nH]2)c2ccccc21,4.62
17,COc1ccccc1NC(=O)NCCc1ccccc1,15.2
18,Cc1ccc(C(=O)N/N=C/c2cccc(OC(=O)/C=C/c3ccco3)c2)cn1,20.1
19,Cc1ccccc1OCc1nc2c3c(ncn2n1)-c1ccccc1CC31CCCC1,12.6
20,Cc1cc(C)nc(NC(=O)C(C)C)n1,14
21,O=C(COC(=O)c1cc2ccccc2oc1=O)c1cccc([N+](=O)[O-])c1,1.78
22,O=C(Nc1ccc(S(=O)(=O)N2CCOCC2)cc1)C1CC1,11.2
23,CC(O)(CS(=O)(=O)c1ccccc1)C(=O)Nc1ccc(C(F)(F)F)cc1 (stereo not shown),-5.57

row,Structure (SMILES),"hERG current change (%, negative = inhibition) at 1uM [%]"
1,CS(=O)(=O)Nc1cccc(C(=O)CC2(O)C(=O)Nc3ccccc32)c1 (stereo not shown),10.6
2,COC(=O)c1ccc(NC(=O)C2CCCN2S(=O)(=O)c2ccc(F)cc2)cc1 (stereo not shown),6.32
3,CCN(Cc1cnn(C)c1)C(=O)c1ccc2nc(Cc3cccc(Cl)c3)oc2c1,15.3
4,CSc1ccccc1NC(=O)c1ccccc1N(Cc1ccccc1)S(C)(=O)=O,14.4
5,O=C(NCC(=O)N(c1ccccc1)C(C(=O)NCC1CCCO1)c1ccccc1)c1cccs1 (stereo not shown),5.4
6,COc1ccnc(N2CCN(c3cccc(C(F)(F)F)c3)CC2)c1C#N,30.1
7,COc1ccc(OC)c(S(=O)(=O)Nc2ccc(OCC(=O)O)cc2)c1,18.5
8,CCC(=O)/C=C1/Sc2ccc(OC)cc2N1CC,5.9
9,CN(C(=O)c1ccccc1C(=O)OCC(=O)Nc1ccc(OC(F)F)cc1)c1ccccc1,-7.78
10,CCOC(=O)c1nc2ccccc2c(C)c1C.Cl,6.1
11,Cc1ccccc1-n1nnnc1SCC(=O)NNC(=O)c1ccc(NC(=O)CC#N)cc1,11
12,CCOc1ccc(CCNC(=O)C2CCC(=O)N2C2CCCCC2)cc1OCC (stereo not shown),5.45
13,CCC(C)NC(=O)CN1C(=O)COc2ccc(S(=O)(=O)N3CCOCC3)cc21 (stereo not shown),14.4
14,O=C(CN1CCN(C(C(=O)Nc2ccc(Cl)cc2C(F)(F)F)c2ccccc2)CC1)NC1CC1 (stereo not shown),-50.1
15,CCCCN(C)C(=O)c1nc2ccccn2c1CN1CCC[C@H]1C(=O)OC,2.36
16,COc1cccc(NC(=O)c2cccc(C(=O)Nc3cccc(OC)c3)c2)c1,14.9
17,COc1ccc(C(Nc2cccc([N+](=O)[O-])c2)P(=O)(OC(C)C)OC(C)C)cc1 (stereo not shown),5.44
18,COc1ccc2nc(NC(=O)CSc3nnnn3C3CCCCC3)sc2c1,1.66
19,COc1cccc(-n2nnc3c(=O)n(Cc4cccc(C)c4)cnc32)c1,4.92
20,CC(C(=O)NCc1ccco1)n1cc([N+](=O)[O-])cn1 (stereo not shown),20.9
21,O=C(NC1CC1)c1cc(F)c(F)cc1Cl,6.81
22,CCOC(=O)c1[nH]c2cc(OC)c(OC)cc2c1NC(=O)CN(C)C1CCCCC1,3.06
23,CCOc1ccc(CCNC(=O)CS(=O)Cc2nc(-c3ccc(C)cc3)oc2C)cc1 (stereo not shown),11.4

row,Structure (SMILES),"hERG current change (%, negative = inhibition) at 1uM [%]"
1,COc1ccccc1NC(=S)NNC(=O)c1nn(C)cc1Cl,8.09
2,O=C(c1ccco1)N1CCN(C(=O)c2cc(-c3ccccn3)nc3ccc(Cl)cc23)CC1,-1.55
3,O=C(CSc1nnc(NC(=O)C2CC2)s1)Nc1cccc(F)c1,15.3
4,COc1cc(NC(=O)C2CC(=O)N(Cc3ccco3)C2)c(OC)cc1Cl (stereo not shown),7.92
5,COC(=O)c1ccccc1NC(=O)c1cccc(NC(=O)CSCc2ccccc2)c1C,1.79
6,CC(C)(C)OC(=O)N1CCC(NC(=O)c2[nH]cnc2C(=O)Nc2ccc(Cl)cc2)CC1,16.9
7,Cc1ccc(-n2nnnc2SCn2nnc3ccccc3c2=O)cc1,6.4
8,COc1ccc(NS(=O)(=O)c2cnc[nH]2)cc1,12.8
9,N=c1c(C(=O)NC2CCCC2)cc2c(=O)n3ccccc3nc2n1C1CCCC1,-89.1
10,COc1nccnc1NS(=O)(=O)c1ccc(NC(=O)c2cccc(C)c2)cc1,12.8
11,Cc1ccc(NC(=O)CCc2ccc(S(=O)(=O)N3CCOCC3)cc2)c(C)c1,13.3
12,COC(=O)c1c(NC(=O)CN2CCN(c3ncccn3)CC2)sc(C(N)=O)c1C,3.71
13,CN(c1ccccc1)S(=O)(=O)c1ccc2ccccc2c1,23.2
14,COc1ccc(C(=O)c2c(-c3ccc(OC)cc3)oc3ccc(-c4cc(OC)c(OC)c(OC)c4)cc23)cc1,12.7
15,CCCCOC(=O)N1CCOCCOCCN(C(=O)OCCCC)CCOCCOCC1,-0.118
16,Cc1cccc(C)c1OCC(=O)Nc1cc(Cl)ccc1-n1cncn1,6.91
17,Cc1cccc(-n2ccnc2SCC(=O)Nc2nccs2)c1C,7.8
18,Cc1ccc(CNS(=O)(=O)NCc2ccc(Cl)cc2)cc1,10.1
19,Clc1ccc(Cn2cc(Br)cn2)cc1Cl,13.1
20,Cc1n[nH]c(=O)n1-c1ccc(OC(F)(F)F)cc1,13.1
21,Cn1cc(C(O)CN2CCCCC2)c2ccccc21 (stereo not shown),13.4
22,CC(=O)NN1C(=O)c2ccccc2NC1c1ccccc1F (stereo not shown),13.9
23,O=C(Nc1cc(=O)[nH]c(=O)[nH]1)c1cccc(C(F)(F)F)c1,6.88

row,Structure (SMILES),"hERG current change (%, negative = inhibition) at 1uM [%]"
1,COc1cccc(C(=O)NNc2nc(C)cc(C)n2)c1,12.4
2,O=c1c2c3c(sc2nc(NCCO)n1-c1ccccc1)CCCC3,19.7
3,CCOC(=O)C1CCN(C(=O)Cc2ccccc2OC)CC1,16.1
4,CCOC(=O)C1CCCN(S(=O)(=O)c2ccc(-c3cc(C)no3)s2)C1 (stereo not shown),0.636
5,CCSC1=N/C(=C\c2cccc(F)c2)C(=O)S1,14.5
6,Cc1ccc(C(=O)N2CCN(Cc3ccc4c(c3)OCO4)CC2)cc1C,-1.56
7,CCOc1cccc(-n2nnnc2-c2ccc(OC)cc2)c1,7.98
8,CN(C)CCCOC(=O)c1cc2ccccc2o1.Cl,13
9,O=C(Nc1cc(C(F)(F)F)ccc1N1CCOCC1)c1ccc(Br)o1,9.71
10,Cc1ccc(S(=O)(=O)n2nc(C)c(C#N)c2N)cc1,7.85
11,O=C(COc1ccc([N+](=O)[O-])cc1)NCCC1=CCCCC1,-14.5
12,O=P([O-])(CN1CCCCCC1)C1Cc2ccccc2C1,21.2
13,Cc1csc(NC(=O)c2cc(-c3ccco3)nc3ccccc23)n1,1.22
14,O=C(/C=C/N1CCOCC1)c1cc2ccccc2o1,5.24
15,COc1cccc2cc(C(=O)N3CC(C)OC(C)C3)c(=O)oc12 (stereo not shown),10.4
16,Cc1cccc(NC(=O)CSc2cccc3cccnc23)c1C,13.9
17,COC(=O)c1c(NC(=S)NNC(=O)c2ccc(Cl)s2)sc(C(=O)N(C)C)c1C,14.2
18,COc1ccc(C)cc1NC(=O)C1CCN(S(=O)(=O)c2c(C)noc2C)CC1,2.62
19,O=C(N1CCOCC1)N1CCN(c2ccccc2)CC1,1.64
20,O=C(N=C1SC2CS(=O)(=O)CC2N1Cc1ccc(Cl)cc1)C1CCCO1 (stereo not shown),12.4
21,C/C(=N\NC(=O)c1cc(C2CC2)nc2ccccc12)c1ccc(O)cc1O,12.3
22,Cc1cc(NC(=O)C(=O)NCc2cccc(Cl)c2)no1,-0.447
